Data taken from PubChem BioAssay (NCATS).
“And” between values parts separate entries of the source, which are not always exact repeats. Identical values can stand only once. Inconclusive means that the source gave no clear call. Such entries were picked first, then a sample of the others. For some of these results: Potencies of inconclusive entries are doubtful fits and often do not repeat. The source holds several records for some structures; these can differ, active in one and inactive in another. The source made the active and inactive calls. Calls come from the whole dose curve; as a rule, active = well fitted curve in the direction sought with a large enough effect; inconclusive = small, poorly fitted or top-dose-only effect, or another doubt; inactive = no such curve, though single readings can be large; an effect the other way counts as inactive or inconclusive.

What was measured:
[1] = qHTS of pediatric cancer cell lines to identify multiple opportunities for drug repurposing: Primary screen for DAOY cells (AID 1347090); settings: DAOY medulloblastoma viability, CellTiter-Glo luminescence, 48 h; activity change, negative = cytotoxic: at 46 µM (top of the series); note: nearly all actives have a fitted effect of over 55% in size
In short: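 Cell viability, CellTiter-Glo luminescence; 500-1,000 cells/well, 8- or 11-point titration, 48 h compound exposure at 37 degrees C, 5% CO2. Controls: DMSO neutral, bortezomib 2.3 µM final as positive.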

[2] = qHTS of pediatric cancer cell lines to identify multiple opportunities for drug repurposing: Primary screen for A673 cells (AID 1347092); settings: A673 Ewing sarcoma viability, CellTiter-Glo ATP luminescence, 48 h; activity change, negative = cytotoxic: at 46 µM (top of the series); note: nearly all actives have a fitted effect of over 45% in size; for activity change, negative = cytotoxic: % is set by controls: 0 for no effect and ±100 for the full control effect
In short: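 A673 cells (500-1,000 cells/well in growth media) were pre-incubated 5 h at 37 degrees C, then exposed to compounds for 48 h. Viability was read as CellTiter-Glo luminescence; concentration-response curves came directly from the primary screen.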

[3] = qHTS of pediatric cancer cell lines to identify multiple opportunities for drug repurposing: Primary screen for BT-37 cells (AID 1347094)
In short: (§1)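 ATP-based luminescence (CellTiter-Glo) quantifies viability after a 48-hour exposure. Compounds are dosed across 8 or 11 final concentrations; DMSO and 2.3 µM bortezomib serve as controls.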

[4] = qHTS of pediatric cancer cell lines to identify multiple opportunities for drug repurposing: Primary screen for NB-EBc1 cells (AID 1347095)
In short: as §1

[5] = qHTS of pediatric cancer cell lines to identify multiple opportunities for drug repurposing: Primary screen for Saos-2 cells (AID 1347097); note: nearly all actives have a fitted effect of over 40% in size
In short: as §1

[6] = qHTS of pediatric cancer cell lines to identify multiple opportunities for drug repurposing: Primary screen for SK-N-SH cells (AID 1347098); note: nearly all actives have a fitted effect of over 65% in size; for activity change, negative = cytotoxic: % is set by controls: 0 for no effect and ±100 for the full control effect
In short: (§2)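 Cells (500-1,000/well) rested 5 h, then received compounds for 48 h; metabolically active cells were measured by CellTiter-Glo luminescence. Final concentrations spanned up to 46 µM (MIPE, 11-point) or 0.59 nM-46 µM (NPC, 8-point) in primary screens, 11-point in follow-ups.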

[7] = qHTS of pediatric cancer cell lines to identify multiple opportunities for drug repurposing: Primary screen for NB1643 cells (AID 1347099); note: nearly all actives have a fitted effect of over 50% in size;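 for activity change, negative = cytotoxic: plate controls were DMSO neutral control for no effect and bortezomib positive control for full effect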
In short: as §1

[8] = qHTS of pediatric cancer cell lines to identify multiple opportunities for drug repurposing: Primary screen for Rh18 cells (AID 1347102); note: nearly all actives have a fitted effect of over 65% in size
In short: as §2

[9] = qHTS of pediatric cancer cell lines to identify multiple opportunities for drug repurposing: Primary screen for OHS-50 cells (AID 1347103); note: nearly all actives have a fitted effect of over 40% in size
In short: as §2

[10] = qHTS of pediatric cancer cell lines to identify multiple opportunities for drug repurposing: Primary screen for RD cells (AID 1347104); note: nearly all actives have a fitted effect of over 55% in size
In short: as §1

[11] = qHTS of pediatric cancer cell lines to identify multiple opportunities for drug repurposing: Primary screen for MG 63 (6-TG R) cells (AID 1347105); settings: MG 63 (6-TG R) viability, CellTiter-Glo, 48 h; activity change, negative = cytotoxic: at 46 µM (top of the series); note: nearly all actives have a fitted effect of over 50% in size
In short: as §1

[12] = qHTS of pediatric cancer cell lines to identify multiple opportunities for drug repurposing: Primary screen for control Hh wild type fibroblast cells (AID 1347106); note: nearly all actives have a fitted effect of over 55% in size
In short: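 Viability after 48 h compound treatment at 37C, 500-1,000 cells/well, read as ATP luminescence with CellTiter-Glo. Primary screens used 11-point (MIPE, 0.78 nM-46 µM) or 8-point (NPC, 0.59 nM-46 µM) final concentrations; follow-up screens used 11-point dilutions.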

[13] = qHTS of pediatric cancer cell lines to identify multiple opportunities for drug repurposing: Primary screen for Rh30 cells (AID 1347107); note: nearly all actives have a fitted effect of over 75% in size; for activity change, negative = cytotoxic: % is set by controls: 0 for no effect and ±100 for the full control effect
In short: as §2

[14] = qHTS of pediatric cancer cell lines to identify multiple opportunities for drug repurposing: Primary screen for Rh41 cells (AID 1347108); note: nearly all actives have a fitted effect of over 70% in size;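 for activity change, negative = cytotoxic: luminescence drop marks cytotoxic hits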
In short: as §1

[15] = qHTS of pediatric cancer cell lines to identify multiple opportunities for drug repurposing: Primary screen for U-2 OS cells (AID 1347096); note: nearly all actives have a fitted effect of over 50% in size
In short: as §2

[16] = qHTS of pediatric cancer cell lines to identify multiple opportunities for drug repurposing: Primary screen for SK-N-MC cells (AID 1347093); settings: SK-N-MC viability, CellTiter-Glo luminescence, 48 h; activity change, negative = cytotoxic: at 46 µM (top of the series)
In short: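 Metabolically active cells were quantified by ATP-dependent luminescence (CellTiter-Glo, 15 min at room temperature) following 48 h treatment. Cells had been plated at 500-1,000 per well and settled for 5 h beforehand.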

[17] = qHTS of pediatric cancer cell lines to identify multiple opportunities for drug repurposing: Primary screen for LAN-5 cells (AID 1347100); settings: LAN-5 neuroblastoma viability, CellTiter-Glo luminescence, 48 h; activity change, negative = cytotoxic: at 46 µM (top of the series)
In short: as §2

[18] = qHTS of pediatric cancer cell lines to identify multiple opportunities for drug repurposing: Primary screen for BT-12 cells (AID 1347101); note: nearly all actives have a fitted effect of over 25% in size;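 for activity change, negative = cytotoxic: plate controls were DMSO for no effect and bortezomib positive control for full effect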
In short: as §2

[19] = qHTS of pediatric cancer cell lines to identify multiple opportunities for drug repurposing: Confirmatory screen for NB1643 cells (AID 1347109); settings: NB1643 neuroblastoma cell viability; activity change, negative = cytotoxic: at 45.9 µM (top of the series); note: nearly all actives have a fitted effect of over 45% in size
In short: as §2
Potency is the fitted concentration of half-maximal effect; tags give direction and shape of the fitted curve.

Structure (SMILES)	Potency [1]	Potency [2]	Potency [3]	Potency [4]	Potency [5]	Potency [6]	Potency [7]	Potency [8]	Potency [9]	Potency [10]	Potency [11]	Potency [12]	Potency [13]	Potency [14]	Potency [15]	activity change, negative = cytotoxic [2]	Potency [16]	Potency [17]	Potency [18]	Potency [19]
C[C@@H]1CC(=O)NN=C1c1ccc(NN=C(C#N)C#N)cc1	inconclusive: 26.6 µM [cytotoxic, single point] and inconclusive: 29.6 µM [cytotoxic, single point]	inconclusive: 16.8 µM [cytotoxic, single point] and inconclusive: 26.6 µM [cytotoxic, single point] and active: 23.5 µM	inconclusive: 30.6 µM [cytotoxic, single point]	inconclusive: 29.9 µM [cytotoxic, single point] and inconclusive: 26.4 µM [cytotoxic, single point]	inconclusive: 29.9 µM [cytotoxic, single point] and inconclusive: 33.5 µM [cytotoxic, single point]	inconclusive: 15.4 µM [cytotoxic, partial curve] and inconclusive: 9.7 µM [cytotoxic, partial curve, poor fit] and inconclusive: 38.3 µM [cytotoxic, single point]	inconclusive: 23.7 µM [cytotoxic, single point] and inconclusive: 29.9 µM [cytotoxic, single point] and active: 26.4 µM	inconclusive: 26.4 µM [cytotoxic, single point]	inconclusive: 1.74 µM [cytotoxic, partial curve, poor fit] and inconclusive: 21.9 µM [cytotoxic, single point]	inconclusive: 26.6 µM [cytotoxic, single point]	inconclusive: 26.6 µM [cytotoxic, single point] and active: 10.6 µM and inconclusive: 590 nM [cytotoxic, partial curve, poor fit]	inconclusive: 29.9 µM [cytotoxic, single point]	inconclusive: 26.6 µM [cytotoxic, single point] and inconclusive: 20.9 µM [cytotoxic, partial curve]	inconclusive: 16.8 µM [cytotoxic, single point]	–	–	–	–	–	–
COc1ccc2ccc(=O)oc2c1CC=C(C)C	inconclusive: 9.35 µM [cytotoxic, full curve]	inconclusive: 9.35 µM [cytotoxic, full curve]	inconclusive: 27.3 µM [cytotoxic, single point]	inconclusive: 33200 nM [cytotoxic, single point]	–	–	inconclusive: 26.4 µM [cytotoxic, single point]	inconclusive: 37.2 µM [cytotoxic, single point]	–	inconclusive: 9.35 µM [cytotoxic, full curve]	inconclusive: 18.7 µM [cytotoxic, partial curve, poor fit]	–	–	inconclusive: 7.43 µM [cytotoxic, full curve]	inconclusive: 23.5 µM [cytotoxic, single point]	–	–	–	–	–
CC(=O)O[C@@]12CO[C@H]1C[C@H](O)[C@@]1(C)C(=O)[C@H](O)C3=C(C)[C@@H](OC(=O)C(O)[C@@H](NC(=O)OC(C)(C)C)c4ccccc4)C[C@@](O)([C@@H](OC(=O)c4ccccc4)[C@@H]21)C3(C)C (stereo partly drawn)	active: 0.001 µM	–	–	inconclusive: 18.7 nM [cytotoxic, full curve]	inconclusive: 0.0015 µM [cytotoxic, full curve]	inactive	–	–	active: 0.001 µM	inconclusive: 0.001 µM [cytotoxic, full curve]	–	–	inconclusive: 5.26 µM [cytotoxic, partial curve, poor fit]	inconclusive: 1.66 µM [cytotoxic, partial curve]	–	inconclusive: -86.7%	active: 0.001 µM	inconclusive: 0.001 µM [cytotoxic, full curve]	inconclusive: 3.06 µM [cytotoxic, full curve]	inconclusive: 0.0052 µM [cytotoxic, full curve]
Nc1nc(Cl)nc2c1ncn2[C@@H]1O[C@H](CO)[C@@H](O)[C@H]1F	active: 0.0372 µM	active: 0.0296 µM	–	active: 1 nM	inconclusive: 0.0935 µM [cytotoxic, full curve]	inconclusive: 24.1 µM [cytotoxic, partial curve]	–	–	inconclusive: 0.001 µM [cytotoxic, full curve]	inconclusive: 0.59 µM [cytotoxic, full curve]	–	–	inactive	inconclusive: 13.2 µM [cytotoxic, partial curve]	–	–	active: 0.001 µM	–	–	–
O=C(NC[C@H](O)CO)c1ccncc1Nc1ccc(I)cc1F	inconclusive: 18.7 µM [cytotoxic, partial curve]	inconclusive: 4.69 µM [cytotoxic, partial curve]	inconclusive: 15.3 µM [cytotoxic, partial curve, poor fit]	inconclusive: 33.2 nM [cytotoxic, full curve]	inconclusive: 4.69 µM [cytotoxic, partial curve]	–	inactive	–	–	inconclusive: 0.105 µM [cytotoxic, full curve]	–	–	–	inconclusive: 14.8 µM [cytotoxic, partial curve]	inconclusive: 5.9 µM [cytotoxic, full curve]	–	–	inconclusive: 1.66 µM [cytotoxic, full curve, poor fit]	inconclusive: 6.85 µM [cytotoxic, partial curve]	–
Cc1cc(-c2ncc(CC(=O)Nc3ccc(-c4cnccn4)cn3)cc2C)ccn1	inconclusive: 14.8 µM [cytotoxic, partial curve]	inconclusive: 18.7 µM [cytotoxic, partial curve]	inconclusive: 19.3 µM [cytotoxic, partial curve]	inconclusive: 11800 nM [cytotoxic, partial curve]	inconclusive: 16.6 µM [cytotoxic, partial curve]	inconclusive: 19.2 µM [cytotoxic, partial curve]	–	–	–	inconclusive: 26.4 µM [cytotoxic, partial curve]	–	inconclusive: 14.8 µM [cytotoxic, partial curve]	inconclusive: 6.62 µM [cytotoxic, partial curve]	–	–	–	–	inconclusive: 14.8 µM [cytotoxic, partial curve]	active: 6.85 µM	–
CC(=O)Nc1cccc(-n2c(=O)n(C3CC3)c(=O)c3c(Nc4ccc(I)cc4F)n(C)c(=O)c(C)c32)c1	inconclusive: 5.9 µM [cytotoxic, partial curve]	inconclusive: 3.72 µM [cytotoxic, partial curve]	–	inconclusive: 41.8 nM [cytotoxic, full curve]	inconclusive: 1.18 µM [cytotoxic, partial curve, poor fit]	active: 3.41 µM	–	inconclusive: 6.62 µM [cytotoxic, partial curve]	inconclusive: 24.3 µM [cytotoxic, partial curve]	–	–	–	inconclusive: 7.43 µM [cytotoxic, partial curve]	–	inconclusive: 5.9 µM [cytotoxic, partial curve]	–	–	active: 18.7 µM	inconclusive: 0.863 µM [cytotoxic, full curve]	–
CC(C)(C)c1cc(NC(=O)Nc2ccc(-c3cn4c(n3)sc3cc(OCCN5CCOCC5)ccc34)cc2)no1	inconclusive: 14.8 µM [cytotoxic, partial curve]	inconclusive: 7.43 µM [cytotoxic, partial curve, poor fit]	inconclusive: 4.85 µM [cytotoxic, partial curve]	–	–	–	–	–	inconclusive: 43.2 µM [cytotoxic, single point]	inconclusive: 1.48 µM [cytotoxic, full curve]	active: 23.5 µM	–	–	inactive	–	–	–	–	inactive	–
CC(C)C[C@H](NC(=O)c1cc2ccccc2s1)C(=O)N1CCN(C(=O)[C@H](CO)NS(=O)(=O)c2ccc(Cl)cc2Cl)CC1	inconclusive: 23.5 µM [cytotoxic, single point]	active: 23.5 µM	active: 15.3 µM	–	–	inconclusive: 30.4 µM [cytotoxic, single point]	active: 23.5 µM	inconclusive: 23.5 µM [cytotoxic, single point]	active: 21.7 µM	active: 29.6 µM	inconclusive: 4.69 µM [cytotoxic, partial curve]	–	–	inconclusive: 18.7 µM [cytotoxic, partial curve]	inconclusive: 23.5 µM [cytotoxic, single point]	–	active: 10.5 µM	inconclusive: 26.4 µM [cytotoxic, single point]	active: 0.001 µM	inconclusive: 29.3 µM [cytotoxic, single point]
